Source: US20130158024A1, “TRICYCLIC NECROSTATIN COMPOUNDS” (priority 2005, published 2013)

Legend:
[1] = test system: mouse two-hour middle cerebral artery occlusion (MCAO)/reperfusion model of brain ischemia; conditions: for infarct volume, combination with zVAD.fmk, in words: coadministration with zVAD.fmk (160 ng); for caspase-3 activation in ischemic brain, in words: western blotting, three hours after reperfusion
[2] = test system: mouse two-hour middle cerebral artery occlusion (MCAO)/reperfusion model of brain ischemia; conditions: two-hour ischemia-reperfusion model following MCA occlusion; cited from earlier work

| Compound | effect on general physiology, in words ([1]; blood oxygen and CO2 levels, body temperature, cerebral blood flow) | infarct volume, combination with zVAD.fmk, in words ([1]; listed as LDN53064) | caspase-3 activation in ischemic brain, in words [1] | caspase-3 activation in ischemic brain, in words ([1]; listed as 7-C1-Nec-1) | therapeutic window reported for other drug candidate classes [2] | infarct volume, combination with zVAD.fmk, in words [1] | LC3-II induction in ischemic brain, in words ([1]; injection at four and six hours, brains collected eight hours after occlusion) |
| --- | --- | --- | --- | --- | --- | --- | --- |
| CN1C(=O)C(Cc2c[nH]c3c(Cl)cccc23)NC1=S (centres unmarked) [Compound 7-Cl-Nec-1] | did not affect blood oxygen and CO2 levels, body temperature or cerebral blood flow | additive effect of LDN53064 with zVAD.fmk on infarct size | does not inhibit caspase-3 activation during brain ischemia; also recorded: not associated with a reduction of caspase-3 activation | did not block caspase-3 activation during ischemic brain injury | – | – | – |
| COC(=O)C[C@H](NC(=O)[C@H](C)NC(=O)[C@@H](NC(=O)OCc1ccccc1)C(C)C)C(=O)CF [zVAD.fmk, N-benzyloxycarbonyl-Val-Ala-Asp-(OMe) fluoromethyl ketone, reference compound] (Cbz-Val-Ala-Asp(OMe)-CH2F) | – | – | whereas zVAD.fmk did | – | effective up to three hours postocclusion | – | – |
| methylthiohydantoin-tryptophane [Nec-1] | – | – | – | – | – | demonstrated an additive protective effect with the caspase inhibitor | delayed administration of Nec-1 inhibited LC3II generation |

Entries after “also recorded” stand apart in the source; their conditions may differ. Where two headings read alike, the source gives them in different places. Where a SMILES comes first, the peptide text is derived from it. The star is where a group is joined. Cbz = O=C(OCc1ccccc1)*; CH2F = FC*
